Laboratory results as given in patent publication US11357864B2, “Antibody drug conjugates for ablating hematopoietic stem cells” (priority 2016, dated 2022).

T1: mouse cKIT (Mus musculus, UniProt P05532)
T1 construct: 3.125-50 nM of cKIT receptor extracellular domains (ECD) were diluted in a 2-fold series; purchased Sino Biological Inc 50530-M08H
T1 sequence (P05532 25-527 limits assumed): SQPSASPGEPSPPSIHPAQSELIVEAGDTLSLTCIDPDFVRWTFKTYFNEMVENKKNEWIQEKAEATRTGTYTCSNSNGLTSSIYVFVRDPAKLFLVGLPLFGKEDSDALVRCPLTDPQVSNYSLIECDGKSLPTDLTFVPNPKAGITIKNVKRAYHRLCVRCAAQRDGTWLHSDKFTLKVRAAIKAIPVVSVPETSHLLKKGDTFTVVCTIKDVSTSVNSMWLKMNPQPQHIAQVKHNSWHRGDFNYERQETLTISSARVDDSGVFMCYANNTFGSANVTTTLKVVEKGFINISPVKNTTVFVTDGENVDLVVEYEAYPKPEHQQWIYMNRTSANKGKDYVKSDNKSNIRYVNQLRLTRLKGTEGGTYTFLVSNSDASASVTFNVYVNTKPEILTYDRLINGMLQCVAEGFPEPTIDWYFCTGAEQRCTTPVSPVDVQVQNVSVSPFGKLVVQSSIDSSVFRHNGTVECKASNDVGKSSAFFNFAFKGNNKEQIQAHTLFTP


What was measured:
mouse cKIT = biological target: T1, mouse cKIT; assay: Cross reactivity of cKIT antibodies to mouse cKIT; format: binding
Procedure: (§1) Affinity of the antibodies to cKIT species orthologues and also to human cKIT was determined using SPR technology using a Biacore® 2000 instrument (GE Healthcare, Pittsburgh, Pa.) and with CM5 sensor chips. Briefly, HBS-P (0.01 M HEPES, pH 7.4, 0.15 M NaCl, 0.005% Surfactant P20) supplemented with 2% Odyssey® blocking buffer (Li-Cor Biosciences, Lincoln, Nebr.) was used as the running buffer for all the experiments. The immobilization level and analyte interactions were measured by response unit (RU). Pilot experiments were performed to test and confirm the feasibility of the immobilization of the anti-human Fc antibody (Catalog number BR100839, GE Healthcare, Pittsburgh, Pa.) and the capture of the test antibodies. For kinetic measurements, the experiments were performed in which the antibodies were captured to the sensor chip surface via the immobilized anti-human Fc antibody and the ability of the cKIT proteins to bind in free solution was determined. Briefly, 25 μg/ml of anti-human Fc antibody at pH 5 was immobilized on a CM5 sensor chip through amine coupling at flow rate of 5 μl/min on both flow cells to reach 10,500 RUs. 0.1-1 μg/ml of test antibodies were then injected at 10 μl/min for 1 minute. Captured levels of the antibodies were generally kept below 200 RUs. […]

rat cKIT = assay: Cross reactivity of cKIT antibodies to rat cKIT; format: binding
Procedure: as §1

Molecule	Reactivity to mouse cKIT (mouse cKIT)	Reactivity to rat cKIT (rat cKIT)
Anti-cKIT Ab5 (antibody) heavy: QVQLVQSGAEVKKPGESLKISCKGSGYSFTNYWIAWVRQMPGKGLEWMGIIYPSNSYTLYSPSFQGQVTISADKSISTAYLQWSSLKASDTAMYYCARVPPGGSISYPAFDHWGQGTLVTVSSASTKGPSVFPLAPSSKSTSGGTAALGCLVKDYFPEPVTVSWNSGALTSGVHTFPAVLQSSGLYSLSSVVTVPSSSLGTQTYICNVNHKPSNTKVDKRV[human IgG1 Fc left out] light: DIELTQPPSVSVSPGQTASITCSGDNIGSIYASWYQQKPGQAPVLVIYRDNKRPSGIPERFSGSNSGNTATLTISGTQAEDEADYYCSVTDMEQHSVFGGGTKLTVLGQPKAAPSVTLFPPSSEELQANKATLVCLISDFYPGAVTVAWKADSSPVKAGVETTTPSKQSNNKYAASSYLSLTPEQWKSHRSYSCQVTHEGSTVEKTVAPTECS	Yes	Yes
Anti-cKIT Ab4 (antibody) heavy: QVQLQQSGPGLVKPSQTLSLTCAISGDSVSTNSAAWNWIRQSPSRGLEWLGRIYYRSQWLNDYAVSVKSRITINPDTSKNQFSLQLNSVTPEDTAVYYCARQLTYPYTVYHKALDVWGQGTLVTVSSASTKGPSVFPLAPSSKSTSGGTAALGCLVKDYFPEPVTVSWNSGALTSGVHTFPAVLQSSGLYSLSSVVTVPSSSLGTQTYICNVNHKPSNTKVDKRV[human IgG1 Fc left out] light: DIELTQPPSVSVSPGQTASITCSGDNLGDQYVSWYQQKPGQAPVLVIYDDTDRPSGIPERFSGSNSGNTATLTISGTQAEDEADYYCQSTDSKSVVFGGGTKLTVLGQPKAAPSVTLFPPSSEELQANKATLVCLISDFYPGAVTVAWKADSSPVKAGVETTTPSKQSNNKYAASSYLSLTPEQWKSHRSYSCQVTHEGSTVEKTVAPTECS	Yes	Yes
